Test systems include OVCAR-4 ovarian; HCT-116 colon; HOP-92 NSCLC; SF-539 CNS; NCI-H522 lung; UACC-62 melanoma; OVCAR-3 ovarian; DMS 273 small cell lung; UO-31 renal; HOP-18 NSCLC; SNB-75 CNS; SW-620 colon; HL-60(TB) leukemia; DMS 114 small cell lung; NCI-H226 lung; UACC-257 melanoma; SN12C renal; COLO 205 colon; SNB-78 CNS; LOX IMVI melanoma; SK-MEL-5 melanoma; KM12 colon; SK-OV-3 ovarian; IGROV1 ovarian; HOP-62 NSCLC; MOLT-4 leukemia; XF 498 CNS; M14 melanoma; OVCAR-8 ovarian; CCRF-CEM leukemia; CAKI-1 renal; HT29 colon; K-562 leukemia; SF-295 CNS; SF-268 CNS; MDA-MB-231 breast; 786-0 renal; BT-549 breast; NCI-H23 lung.

What all share (assay): DTP human tumour cell line panel, 48 h

The results in this text go back to PubChem BioAssay (NCI).

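Briefly, cells in 96-well plates were exposed to five compound concentrations for 48 h, and endpoints were estimated by linear interpolation. The concentration for 50% growth inhibition is given as GI50.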 Some entries of the source have several records that differ or are many. The list is limited to them. There may be further records. For some of these results: A record mostly stands for its own series of concentrations, which the source does not state; a value can be the end of its range. For some of these results: The values listed for one entry are repeated measurements in other runs, samples, wells, individuals or studies. A tag in brackets gives the origin of a value. Letters hold for one entry only.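 TGI denotes the concentration required for complete inhibition of growth.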

Turning to `CC1[C@@H]2CC=C3[C@H]4CCC5Cc6nc7c(nc6C[C@@]5(C)C4(O)CC(=O)[C@]32CO[C@]12OC(C)(C)CC2O)CC1CC[C@@H]2C3=C[C@H]4O[C@@]5(O[C@@](C)(CO)C[C@@H]5O)C(C)[C@@]4(O)[C@]3(C)[C@@H](O)CC2[C@]1(C)C7` (stereo partly specified), the GI50 with OVCAR-4 ovarian is 16.8 nM and 882 nM; in the experiment with HCT-116 colon, 0.294 nM and 3.95 nM; in the experiment on NCI-H522 lung, 0.786 nM and 11.3 nM; with OVCAR-3 ovarian, 343 nM and > 3.6 µM; in the experiment with UO-31 renal it was 1.18 nM and 37.9 nM; in the experiment on HOP-18 NSCLC, 14.4 nM and > 3.6 µM. Besides, the concentration for 50% growth inhibition (GI50) in the experiment on NCI-H226 lung was 0.142 nM and > 3.6 µM; with UACC-257 melanoma, 0.917 nM and 10.5 nM; in the experiment with SN12C renal, 105 nM and > 3.6 µM; in the experiment on COLO 205 colon, 0.623 nM and 11.2 nM; with SNB-78 CNS, 0.251 nM and 3.15 nM; in the experiment with KM12 colon it was 0.372 nM and > 3.6 µM. Further, the TGI with HOP-92 NSCLC was 8.49 nM and 194 nM; in the experiment with SF-539 CNS, 0.252 nM and 6.8 nM; in the experiment with NCI-H522 lung, 5.05 nM and 200 nM; with UACC-62 melanoma, 0.383 nM and 4.19 nM; in the experiment with DMS 273 small cell lung, 0.119 nM and 44.1 nM; with UO-31 renal it was 4.78 nM and 217 nM. The TGI was 0.507 nM and 207 nM with SNB-75 CNS; 4.85 nM and 62.4 nM in the experiment on SW-620 colon; 16.1 nM and 196 nM in the experiment on HL-60(TB) leukemia; 8.18 nM and 386 nM in the experiment with DMS 114 small cell lung; 50.3 nM and > 3.6 µM with NCI-H226 lung; 3.93 nM and 65 nM in the experiment on UACC-257 melanoma. Besides, the TGI in the experiment on SNB-78 CNS was 7.75 nM and > 3.6 µM; with LOX IMVI melanoma it was 55.3 nM and 1.35 µM; in the experiment on SK-MEL-5 melanoma, 20.5 nM and > 3.6 µM; in the experiment with KM12 colon, 36.5 nM and > 3.6 µM; with SK-OV-3 ovarian, 3.2 nM and 208 nM.
As to `Cn1cnc2c(F)c(Nc3ccc(Br)cc3F)c(C(=O)NOCCO)cc21`, the GI50 with IGROV1 ovarian is 112 nM [sample A, mean of 2 tests] and 3.91 µM [sample B, mean of 2 tests]; with SNB-75 CNS, 135 nM [sample A, 1 test] and > 62.2 µM [sample B, mean of 2 tests]; with HOP-62 NSCLC, 28.3 nM [sample A, mean of 2 tests] and 983 nM [sample B, 1 test]. The TGI in the experiment on SNB-75 CNS was 1.2 µM [sample A, 1 test] and > 100 µM [sample B, mean of 2 tests]; in the experiment on COLO 205 colon, 2.1 µM [sample A, mean of 2 tests] and > 39.9 µM [sample B, mean of 2 tests].
Consider `CC(=O)NC1(C(=O)N[C@@H](Cc2ccccc2)C(=O)NC2CCCCC2)Cc2ccc3ccccc3c2-c2c(ccc3ccccc23)C1`, for which the concentration for total growth inhibition (TGI) in the experiment with MOLT-4 leukemia was 6.66 µM [sample A, 1 test] and 70.5 µM [sample B, 1 test].
Consider `COc1cc(/C=C\c2ccc(Br)cc2)cc(OC)c1OC`, for which the total growth inhibition concentration (TGI) with XF 498 CNS was 62.3 nM and 46.1 µM; in the experiment on M14 melanoma it was 2.57 nM and 12.1 µM; in the experiment with SNB-75 CNS, 3 nM and 96.7 µM; with NCI-H226 lung, 188 nM and > 100 µM; in the experiment with OVCAR-8 ovarian, 105 nM and > 100 µM; in the experiment on SNB-78 CNS, 0.795 nM and > 100 µM.
`CCN(CC)CCOC(=O)Cc1cccc2c(=O)cc(-c3ccccc3)oc12`: the TGI is 61.2 µM and > 625 µM in the experiment with CCRF-CEM leukemia; 43.5 µM and > 625 µM in the experiment with CAKI-1 renal; 13.7 µM and > 625 µM in the experiment with UO-31 renal; 62.5 µM and > 625 µM with HT29 colon; 62.5 µM and > 625 µM in the experiment with K-562 leukemia; 62.5 µM and > 625 µM in the experiment with COLO 205 colon.
With `CC(C)C[C@H](NC(=O)[C@H](Cc1cccc2ccccc12)NS(=O)(=O)c1cccc2cccnc12)B(O)O`, the TGI in the experiment with SF-539 CNS is 0.376 nM and 463 nM; in the experiment with M14 melanoma it was 27.7 nM and > 100 µM; in the experiment on SF-295 CNS, 924 nM and > 100 µM; in the experiment with SNB-75 CNS it was 8.24 nM and > 100 µM; in the experiment on SF-268 CNS it was 29.9 nM and > 100 µM; in the experiment with HL-60(TB) leukemia it was 2.46 nM and > 100 µM. In addition, the GI50 was 2.66 nM and 28.7 nM with M14 melanoma; 1.37 nM and 549 nM in the experiment with SNB-75 CNS; 1.89 nM and 48.8 nM with SF-268 CNS.
For `CC(C)C[C@H](NC(=O)[C@@H](NC(=O)c1cccc(-c2ccccc2)n1)[C@@H](C)O)B(O)O`, the TGI with MDA-MB-231 breast is 53.4 nM [1 test] and 551 nM [mean of 3 tests]; with 786-0 renal it was 96.4 nM [1 test] and 2 µM [mean of 3 tests]; in the experiment with BT-549 breast, 117 nM [1 test] and < 11.4 nM [mean of 3 tests]; in the experiment with CAKI-1 renal, 163 nM [1 test] and 6.26 µM [mean of 2 tests]; in the experiment on NCI-H23 lung, 753 nM [1 test] and 46.9 nM [mean of 3 tests].
